Measured values as given in PubChem BioAssay (Tox21).
Values joined by “and” are separate entries in the source; they are usually repeats but may differ in a detail not shown here. Equal entries are not always repeated. The shares of active, inactive and inconclusive entries below differ from those in the screen. Where the call is inconclusive, the potency comes from a doubtful curve fit. Some structures have more than one record in an assay (separate samples or runs), and their calls can disagree. Active and inactive are the calls of the source. Unless noted, calls come from the whole dose curve; as a rule, active = well fitted inhibition curve with a large enough effect in the signal ratio in the repeat runs; inconclusive = weak or mixed curves, or effect the other way; inactive = flat fitted curve, though single readings scatter; the % refers to the signal ratio.

test: qHTS assay for small molecule agonists of the p53 signaling pathway (AID 651631; calls by dose curve; note: nearly all actives have a fitted effect of over 15% in size); settings: HCT-116 p53RE-bla reporter, beta-lactamase FRET ratio, 16 h; activation: at 73.3 µM (top of the series) unless noted
Outline: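 Quantitative high-throughput format: 4,000 p53RE-bla HCT-116 cells/well, 5 h pre-incubation, 16 h compound exposure at 37 °C, 2 h room-temperature substrate step, fluorescence intensity measured.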
% is set by controls: 0 for no effect and ±100 for the full control effect; potency is the fitted concentration of half-maximal effect; tags give direction and shape of the fitted curve or compound fluorescence and quenching.

| Compound | Potency | activation |
| --- | --- | --- |
| Cc1ccccc1CCl | inconclusive: 2.43 µM [activator, single point] | – |
| C1CCC2CCCCC2C1 (stereo not drawn) | – | inactive: 1.98% [at 95.1 µM] |
| O=NN1CCCC1 | inactive | – |
| C=CC[C@]1(O)CC[C@H]2[C@@H]3CCC4=CC(=O)CCC4=C3C=C[C@@]21C | inconclusive: 10.6 µM [fluorescent, partial curve, poor fit] | – |
| Oc1ccc2[nH]cc(CCCCN3CC=C(c4ccccc4)CC3)c2c1 | inconclusive: 6.68 µM [falling, partial curve, poor fit] | – |
| Cc1cc(C(F)(C(F)(F)F)C(F)(F)F)ccc1NC(=O)c1cccc(I)c1C(=O)NC(C)(C)CS(C)(=O)=O | inconclusive: 48.8 µM [falling, partial curve, poor fit] | – |
| Oc1ccc(Cl)c(Cl)c1Cl | inconclusive: 71.1 µM [activator] | – |
| COc1nn(CSP(=S)(OC)OC)c(=O)s1 | inconclusive: 24.3 µM [falling, partial curve] | – |
| O=Cc1ccc(Cl)cc1Cl | inconclusive: 61.6 µM [activator, partial curve, poor fit] | – |
| CCCCOCC1CO1 (stereo not drawn) | – | inactive: -0.121% |
| Nc1nc(=S)[nH][nH]1 | – | inactive: 1.59% |
| O=C(CCl)Nc1ccccc1 | inconclusive: 13.7 µM [activator, single point] | – |
| S=C=Nc1ccccc1 | – | inconclusive: 6.3% [at 95.1 µM] |
| Oc1cccc(Cl)c1Cl | – | inconclusive: 6.33% [at 95.1 µM] |
| CN1[C@@H]2CC[C@H]1CC(OC(=O)c1cc(Cl)cc(Cl)c1)C2 (stereo partly drawn) | – | inconclusive: 9.66% |
| O=C(O)C(Cl)Br (stereo not drawn) | inconclusive: 0.873 µM [falling, single point] | – |
| O=NN(c1ccccc1)c1ccccc1 | inconclusive: 2.38 µM [activator, single point] | – |
| CCOP(=S)(OCC)Oc1ncn(-c2ccccc2)n1 | inconclusive: 27.3 µM [falling, single point] | – |
| O=C1CCCCC1Cl (stereo not drawn) | – | inactive: 2.57% [at 95.1 µM] |
| CNC(=O)Oc1cccc2c1OC(C)(C)C2 | inconclusive: 2.49 µM [activator, single point] and inactive | – |
| C=CCN=C=S | inactive | – |
| Clc1ccc(Cl)cc1 | inactive | – |
| CC[C@H](C)[C@H]1O[C@]2(C=C[C@@H]1C)C[C@@H]1C[C@@H](C/C=C(\C)[C@@H](O[C@H]3C[C@H](OC)[C@@H](O[C@H]4C[C@H](OC)[C@@H](NC)[C@H](C)O4)[C@H](C)O3)[C@@H](C)/C=C/C=C3\CO[C@@H]4[C@H](O)C(C)=C[C@@H](C(=O)O1)[C@]34O)O2 | inconclusive: 13.7 µM [cytotoxic, full curve] | – |

test: qHTS assay for small molecule disruptors of the mitochondrial membrane potential (AID 720635); settings: HepG2 mitochondrial membrane potential, Mito-MPS dye ratio; ratio activity, negative = MMP loss: at 83.2 µM (top of the series) unless noted
Outline: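 HepG2 cells (2,000/well) attached overnight at 37C, then took compound for 1 hr at 37C, 5% CO2. Mito-MPS dye was added for 30 min; fluorescence was read at 490/535 nm (monomers) and 540/590 nm (aggregates).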

| Compound | Potency | ratio activity, negative = MMP loss |
| --- | --- | --- |
| CON(C)C(=O)Nc1ccc(Cl)cc1 | inconclusive: 21.7 µM [activator, partial curve, poor fit] | – |
| Nc1cc(Cl)ccc1Cl | – | inconclusive: -3.44% |
| O=C(O)CCCCCCNC1c2ccccc2CCc2ccccc21 | – | inactive: 10.8% |
| CS(=O)(=O)c1cc(C(F)(F)F)ccc1C(=O)c1cnoc1C1CC1 | – | inactive: 14.8% |
| C[C@@H]1CC[C@H]2[C@@H](C)C(=O)O[C@@H]3O[C@@]4(C)CC[C@@H]1[C@]32OO4 | – | inactive: -13.8% |
| c1ccc2c(c1)sc1ccccc12 | inconclusive: 68.6 µM [rising, partial curve, poor fit] | – |
| CCSCc1ccccc1OC(=O)NC | – | inconclusive: 0.0055% |
| CC(Oc1ccc(Oc2ncc(C(F)(F)F)cc2Cl)cc1)C(=O)O (stereo not drawn) | – | inconclusive: -15.3% |
| CCCCC(CC)COC(=O)OOC(C)(C)C (stereo not drawn) | inconclusive: 27.3 µM [activator, single point] | – |
| COC(C)(C)CCCC(C)C/C=C/C(C)=C/C(=O)OC(C)C (stereo not drawn) | active: 21.3 µM | – |
| CCOCCOC(C)=O | inconclusive: 1.22 µM [activator, partial curve, poor fit] | – |
| CN(C)C(=O)Nc1ccc(Cl)cc1 | – | inconclusive: -20.3% |
| CCOC(=O)CBr | – | inconclusive: -51.9% [at 95.3 µM] |
| Oc1ccccc1Cl | inconclusive: 2.43 µM [rising, single point] | – |
| CCC(COC(=O)c1cc(OC)c(OC)c(OC)c1)(c1ccccc1)N(C)C (stereo not drawn) | inconclusive: 13.3 µM [activator, full curve, poor fit] | – |
| FC(F)(F)c1cccc(C2=CCN(CCc3ccc4ccccc4c3)CC2)c1 | – | inconclusive: 43.2% |
| NP(N)(=O)NC(=O)c1ccc(F)cc1 | inconclusive: 3.76 µM [activator, partial curve, poor fit] | – |
| Cc1ccccc1CCl | inconclusive: 27.3 µM [rising, single point] | – |
| C1CCC2CCCCC2C1 (stereo not drawn) | – | inconclusive: 7.06% [at 95.3 µM] |
| O=NN1CCCC1 | inactive | – |

| Compound | Potency | ratio activity, negative = MMP loss |
| --- | --- | --- |
| C=CC[C@]1(O)CC[C@H]2[C@@H]3CCC4=CC(=O)CCC4=C3C=C[C@@]21C | – | inactive: -11.9% |
| Oc1ccc2[nH]cc(CCCCN3CC=C(c4ccccc4)CC3)c2c1 | – | inconclusive: 11.4% |
| Cc1cc(C(F)(C(F)(F)F)C(F)(F)F)ccc1NC(=O)c1cccc(I)c1C(=O)NC(C)(C)CS(C)(=O)=O | active: 17.3 µM | – |
| Oc1ccc(Cl)c(Cl)c1Cl | active: 4.49 µM | – |
| COc1nn(CSP(=S)(OC)OC)c(=O)s1 | inconclusive: 0.077 µM [activator, full curve, poor fit] | – |
| O=Cc1ccc(Cl)cc1Cl | – | inconclusive: -8.55% [at 95.3 µM] |
| CCCCOCC1CO1 (stereo not drawn) | – | inconclusive: 2.36% [at 95.3 µM] |
| Nc1nc(=S)[nH][nH]1 | – | inactive: 23.1% |
| O=C(CCl)Nc1ccccc1 | – | inconclusive: 17.1% |
| S=C=Nc1ccccc1 | active: 28.2 µM | – |
| Oc1cccc(Cl)c1Cl | active: 48.8 µM | – |
| CN1[C@@H]2CC[C@H]1CC(OC(=O)c1cc(Cl)cc(Cl)c1)C2 (stereo partly drawn) | inconclusive: 11.9 µM [activator, partial curve] | – |
| O=C(O)C(Cl)Br (stereo not drawn) | – | inconclusive: 2.31% [at 95.3 µM] |
| O=NN(c1ccccc1)c1ccccc1 | inactive and inconclusive: 77 µM [activator, single point] | – |
| CCOP(=S)(OCC)Oc1ncn(-c2ccccc2)n1 | active: 6.86 µM | – |
| O=C1CCCCC1Cl (stereo not drawn) | – | inactive: 21.3% [at 95.3 µM] |
| CNC(=O)Oc1cccc2c1OC(C)(C)C2 | – | inconclusive: -6.99% [at 95.3 µM] |
| C=CCN=C=S | inactive | – |
| Clc1ccc(Cl)cc1 | – | inconclusive: -0.808% |
| CC[C@H](C)[C@H]1O[C@]2(C=C[C@@H]1C)C[C@@H]1C[C@@H](C/C=C(\C)[C@@H](O[C@H]3C[C@H](OC)[C@@H](O[C@H]4C[C@H](OC)[C@@H](NC)[C@H](C)O4)[C@H](C)O3)[C@@H](C)/C=C/C=C3\CO[C@@H]4[C@H](O)C(C)=C[C@@H](C(=O)O1)[C@]34O)O2 | active: 6.86 µM | – |
